The source of these data is the supplement of paper PMC10498489.

Each structure is given as a SMILES string. About 330 (14%) of roughly 2,300 compounds showed activity.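 The calls were made as follows: active = median modified Z-score above 1.96; inactive = 1.96 or below.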 The list shows a part of the results, in another mix than the full data.

The test system of this test is HepG2 Srxn1-GFP reporter cells (+30 nM CDDO-Me). Briefly: Srxn1-GFP intensity median modified Z-score relative to plate median; higher = stronger NRF2 / oxidative stress reporter activation, active = hit call of the paper. To be noted: 10 µM; exposure time: 24h. In outline: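 HepG2 Srxn1-GFP BAC reporter cells (20,000 per well, 96-well plates) were co-exposed to an NRF2 activator at 30 nM and compound at 10 μM (≤0.1% DMSO) for 24 h in three replicate plates. After formaldehyde fixation and Hoechst staining, confocal images were analysed per cell for cytoplasmic GFP, excluding images with under 100 cells. The value is the median over replicates of the per-plate modified Z-score of GFP intensity. Scaling used 1.4826 × median absolute deviation.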
With `O=C1C2CC3CC1CC(O)(C3)C2` [euspeclibcmpd1208], the “Srxn1-GFP intensity median modified Z-score” value is inactive: -0.128.

Take `CCN1CCN(c2cc3c(cc2F)c(=O)c(C(=O)O)cn3C2CC2)CC1` [euspeclibcmpd683]: the “Srxn1-GFP intensity median modified Z-score” value is inactive: -0.544.

Consider `COC1=CC(=O)C(=O)C=C1C=CCc1ccccc1` [euspeclibcmpd1419], for which the “Srxn1-GFP intensity median modified Z-score” value is active: 9.05.

Take `O=C(O)COC(=O)Cc1ccccc1Nc1c(Cl)cccc1Cl` [euspeclibcmpd1099]: the “Srxn1-GFP intensity median modified Z-score” value was inactive: 0.786.

In the case of `COc1ccc2c(c1)c(CC(=O)Nc1nccs1)c(C)n2C(=O)c1ccc(Cl)cc1`, the “Srxn1-GFP intensity median modified Z-score” value was inactive: 1.66.

`OC1(c2ccc(Cl)c(C(F)(F)F)c2)CCN(CCCC(c2ccc(F)cc2)c2ccc(F)cc2)CC1` [euspeclibcmpd587]: the “Srxn1-GFP intensity median modified Z-score” value was inactive: -1.37.

For the compound `O=C(O)CCCc1ccccc1` [euspeclibcmpd2401], the “Srxn1-GFP intensity median modified Z-score” value was inactive: 0.409.

Turning to `CC(=O)Oc1cc(OC(C)=O)c2c(c1)O[C@H](c1ccc(OC(C)=O)c(OC(C)=O)c1)[C@H](OC(C)=O)C2` [euspeclibcmpd2220], the “Srxn1-GFP intensity median modified Z-score” value was inactive: 0.

Consider `CN1CCN(CCCN2c3ccccc3Sc3ccc(Cl)cc32)CC1` [euspeclibcmpd249], for which the “Srxn1-GFP intensity median modified Z-score” value was active: 3.78.

As to `N=c1[nH]c(=S)c2nc[nH]c2[nH]1` [euspeclibcmpd292], the “Srxn1-GFP intensity median modified Z-score” value was active: 28.2.

Regarding `NCCCCS(=O)(=O)O`, the “Srxn1-GFP intensity median modified Z-score” value was active: 10.1.

Take `CC(C)/N=c1\cc2n(-c3ccc(Cl)cc3)c3ccccc3[nH]c-2cc1=Nc1ccc(Cl)cc1` [euspeclibcmpd891]: the “Srxn1-GFP intensity median modified Z-score” value was active: 7.89.

`C1CNCCN1` [euspeclibcmpd2044]: the “Srxn1-GFP intensity median modified Z-score” value was active: 5.44.

As to `COc1c2occc2c(OC)c2c(=O)cc(C)oc12` [euspeclibcmpd1011], the “Srxn1-GFP intensity median modified Z-score” value was inactive: -0.716.

On to `CC1CCC2[C@@]3(C)C=CC(=O)C(C)(C)C3CC3OC(=O)C(=O)C1[C@]32C` (some centres undefined) [euspeclibcmpd1535], for which the “Srxn1-GFP intensity median modified Z-score” value is active: 9.38.

As for `Cc1c(N(C)CS(=O)(=O)O)c(=O)n(-c2ccccc2)n1C` [euspeclibcmpd2168], the “Srxn1-GFP intensity median modified Z-score” value is inactive: -0.462.

`CC(=O)O[C@@H]1CC2C(C)(C)C(=O)CC[C@]2(C)C2CC[C@@]3(C)[C@H](c4ccoc4)OC(=O)C4OC43[C@@]21C` (some centres undefined) [euspeclibcmpd1587]: the “Srxn1-GFP intensity median modified Z-score” value was active: 32.1.

As for `C[C@@H]1O[C@@H](O[C@H]2[C@H](Oc3cc(O)c4c(=O)cc(-c5ccc(O)cc5)oc4c3)O[C@H](CO)[C@@H](O)[C@@H]2O)[C@H](O)[C@H](O)[C@H]1O` [euspeclibcmpd1319], the “Srxn1-GFP intensity median modified Z-score” value was inactive: 0.395.

On to `O=S(=O)(O)NC1CCCCC1` [euspeclibcmpd2052], for which the “Srxn1-GFP intensity median modified Z-score” value was inactive: -0.268.

Turning to `O=S(=O)(O)NC1CCCCC1` [euspeclibcmpd2459], the “Srxn1-GFP intensity median modified Z-score” value was inactive: 0.0532.

In the case of `CCN(CC)CCc1nc(-c2ccccc2)no1` [euspeclibcmpd2430], the “Srxn1-GFP intensity median modified Z-score” value was active: 10.5.

As to `COc1ccccc1OCC(O)CN1CCN(CC(=O)Nc2c(C)cccc2C)CC1` (centres undefined) [euspeclibcmpd755], the “Srxn1-GFP intensity median modified Z-score” value was inactive: -0.121.

With `COc1c(C/C=C(\C)CCC(=O)OCCN2CCOCC2)c(O)c2c(O)occ2c1C` [euspeclibcmpd688], the “Srxn1-GFP intensity median modified Z-score” value was active: 5.22.

Consider `CCCNCC(O)COc1ccccc1C(=O)CCc1ccccc1` (centres undefined) [euspeclibcmpd641], for which the “Srxn1-GFP intensity median modified Z-score” value was inactive: 0.9.

Regarding `CN(C)c1nc(N(C)C)nc(N(C)C)n1` [euspeclibcmpd517], the “Srxn1-GFP intensity median modified Z-score” value is inactive: 0.935.

As to `O=C(O)c1cc(-c2ccccc2)nc2ccccc12` [euspeclibcmpd1182], the “Srxn1-GFP intensity median modified Z-score” value was inactive: 0.423.

Turning to `CC(C)NCC(O)c1ccc2ccccc2c1` (centres undefined) [euspeclibcmpd1142], the “Srxn1-GFP intensity median modified Z-score” value was inactive: -0.55.

In the case of `c1ccc([C@H]2CN3CCSC3=N2)cc1` [euspeclibcmpd2246], the “Srxn1-GFP intensity median modified Z-score” value was inactive: 0.727.

Consider `CN(C)CC/C=C1\c2ccccc2Sc2ccc(Cl)cc21` [euspeclibcmpd538], for which the “Srxn1-GFP intensity median modified Z-score” value is inactive: -1.04.

With `Cc1c(O)c(=O)ccn1C` [euspeclibcmpd1185], the “Srxn1-GFP intensity median modified Z-score” value is inactive: -0.715.

With `O=C(/C=C/C(=O)Oc1ccccc1C(=O)O)Oc1ccccc1C(=O)O` [euspeclibcmpd1772], the “Srxn1-GFP intensity median modified Z-score” value was inactive: -0.354.

For the compound `COc1ccc(C2CNC(=O)C2)cc1OC1CCCC1` (centres undefined) [euspeclibcmpd1287], the “Srxn1-GFP intensity median modified Z-score” value is inactive: -0.259.

Regarding `O=c1c(O)c(-c2ccccc2)oc2cc(O)ccc12` [euspeclibcmpd1652], the “Srxn1-GFP intensity median modified Z-score” value is inactive: 0.171.

For `COc1cc(-c2coc3cc(O[C@@H]4O[C@H](CO)[C@@H](O)[C@H](O)[C@H]4O)c(OC)c(O)c3c2=O)cc(O)c1OC` [euspeclibcmpd1635], the “Srxn1-GFP intensity median modified Z-score” value was inactive: -0.457.

Regarding `COc1ccc(-c2cc(=O)c3ccccc3o2)cc1` [euspeclibcmpd2301], the “Srxn1-GFP intensity median modified Z-score” value is inactive: -0.395.

Regarding `N=c1[nH]c(=S)c2ncn(C3O[C@H](CO)[C@@H](O)[C@H]3O)c2[nH]1` (some centres undefined) [euspeclibcmpd1778], the “Srxn1-GFP intensity median modified Z-score” value was active: 41.1.

With `C[C@@H]1CC2C3CC(F)=C4CC(=O)C=C[C@]4(C)[C@@]3(F)[C@@H](O)C[C@]2(C)[C@@]1(O)C(=O)CO` (some centres undefined) [euspeclibcmpd415], the “Srxn1-GFP intensity median modified Z-score” value is inactive: -0.177.

For `CN1CCC(=C2c3ccccc3C=Cc3ccccc32)CC1` [euspeclibcmpd890], the “Srxn1-GFP intensity median modified Z-score” value is active: 7.54.

For `CC(Cc1cccc(C(F)(F)F)c1)NCCOC(=O)c1ccccc1` (centres undefined) [euspeclibcmpd1047], the “Srxn1-GFP intensity median modified Z-score” value was inactive: -0.246.

`CC1(C)[C@@H]2CC[C@]1(C)C(=O)C2` [euspeclibcmpd42]: the “Srxn1-GFP intensity median modified Z-score” value was inactive: -0.12.

For the compound `O=C(Oc1cc(O)cc2c1CC(OC(=O)c1cc(O)c(O)c(O)c1)C(c1cc(O)c(O)c(O)c1)O2)c1cc(O)c(O)c(O)c1` (centres undefined) [euspeclibcmpd1839], the “Srxn1-GFP intensity median modified Z-score” value is inactive: -0.336.

As to `Cc1nccnc1N1CCCCC1` [euspeclibcmpd921], the “Srxn1-GFP intensity median modified Z-score” value was inactive: -0.584.

On to `C=C(C)c1cc(O)c(C)cc1O` [euspeclibcmpd1354], for which the “Srxn1-GFP intensity median modified Z-score” value is active: 6.7.

For `CC12CCC3C(CC3(C)C)C(C)(CCC1=O)O2` (centres undefined) [euspeclibcmpd2010], the “Srxn1-GFP intensity median modified Z-score” value was inactive: -0.5.

As to `O=C(O)CCCCCCCC(=O)O` [euspeclibcmpd326], the “Srxn1-GFP intensity median modified Z-score” value was inactive: 0.617.

With `CC1=C2CC(=O)C=C[C@]2(C)C2C(C1)C1CC[C@](O)(C(=O)COC(=O)CCC(=O)O)[C@@]1(C)C[C@@H]2O` (some centres undefined) [euspeclibcmpd2224], the “Srxn1-GFP intensity median modified Z-score” value was inactive: -0.845.

As to `CCCCN(CCCC)CCCOC(=O)c1ccc(N)cc1` [euspeclibcmpd632], the “Srxn1-GFP intensity median modified Z-score” value is inactive: -0.742.

For the compound `FC(F)(F)C(Cl)Br` (centres undefined) [euspeclibcmpd783], the “Srxn1-GFP intensity median modified Z-score” value is inactive: -0.331.

Consider `O=C(O)CN1C(=O)c2cccc3cccc(c23)C1=O` [euspeclibcmpd433], for which the “Srxn1-GFP intensity median modified Z-score” value is active: 2.2.

As to `CC(=O)OCC(=O)[C@@]1(O)CC[C@H]2[C@@H]3CCC4=CC(=O)CC[C@]4(C)[C@H]3[C@@H](O)C[C@@]21C`, the “Srxn1-GFP intensity median modified Z-score” value was inactive: 0.378.

With `CCCCCCCCCCCCCCCC(=O)OC/C=C(C)/C=C/C=C(C)/C=C/C1=C(C)CCCC1(C)C` [euspeclibcmpd856], the “Srxn1-GFP intensity median modified Z-score” value is inactive: 0.0199.

For `C=CC(N)CCC(=O)O` (centres undefined) [euspeclibcmpd2202], the “Srxn1-GFP intensity median modified Z-score” value was inactive: 1.14.

With `NS(=O)(=O)c1cc(C2(O)NC(=O)c3ccccc32)ccc1Cl` (centres undefined) [euspeclibcmpd62], the “Srxn1-GFP intensity median modified Z-score” value is inactive: -0.0714.

Turning to `CC[N+](C)(C)c1cccc(O)c1` [euspeclibcmpd953], the “Srxn1-GFP intensity median modified Z-score” value is inactive: 0.119.

For the compound `NCc1ccccc1CC(=O)NC1C(=O)N2C(C(=O)O)=C(CSc3nnnn3CC(=O)O)CSC12` (centres undefined) [euspeclibcmpd506], the “Srxn1-GFP intensity median modified Z-score” value is inactive: -0.382.

As for `OC(Cn1cncn1)(Cn1cncn1)c1ccc(F)cc1F` [euspeclibcmpd643], the “Srxn1-GFP intensity median modified Z-score” value was inactive: -0.214.

Regarding `Cc1cn[nH]c1` [euspeclibcmpd2215], the “Srxn1-GFP intensity median modified Z-score” value was inactive: -0.461.

Take `Cc1cn[nH]c1` [euspeclibcmpd2196]: the “Srxn1-GFP intensity median modified Z-score” value was inactive: 1.06.

`CC[N+](C)(CC)CCOC(=O)C(O)(c1ccccc1)C1CCCCC1` (centres undefined) [euspeclibcmpd1223]: the “Srxn1-GFP intensity median modified Z-score” value is inactive: -0.312.

As for `CC1(C)OC(=O)C(OCC2CC2)=C1c1ccc(S(C)(=O)=O)cc1` [euspeclibcmpd752], the “Srxn1-GFP intensity median modified Z-score” value was inactive: -0.638.

On to `CCN(CC)CCOC(=O)C1(C2CCCCC2)CCCCC1` [euspeclibcmpd90], for which the “Srxn1-GFP intensity median modified Z-score” value was active: 2.86.

Take `O=c1cc(-c2ccccc2)oc2c(O)c(O)ccc12` [euspeclibcmpd2237]: the “Srxn1-GFP intensity median modified Z-score” value was active: 4.14.

For `CCCCOCCOCCOCc1cc2c(cc1CCC)OCO2` [euspeclibcmpd1169], the “Srxn1-GFP intensity median modified Z-score” value is inactive: 0.075.

With `CC(O)CN1CCN(CC(=O)O)CCN(CC(=O)O)CCN(CC(=O)O)CC1` (centres undefined) [euspeclibcmpd2179], the “Srxn1-GFP intensity median modified Z-score” value was inactive: -0.14.

`Cc1[nH]ccc2c1[nH]c1cc(=O)ccc12` [euspeclibcmpd2030]: the “Srxn1-GFP intensity median modified Z-score” value was inactive: -0.813.

On to `CN(C)CCCN1c2ccccc2Sc2ccc(C(F)(F)F)cc21` [euspeclibcmpd612], for which the “Srxn1-GFP intensity median modified Z-score” value was inactive: -1.21.

Regarding `CC(=O)OC1=C2C(C)C(O)CC(O)(C(OC(=O)c3ccccc3)C3C4(OC(C)=O)COC4CC(O)C3(C)C1=O)C2(C)C` (centres undefined) [euspeclibcmpd1937], the “Srxn1-GFP intensity median modified Z-score” value was inactive: 0.285.

Regarding `CC1=C(CCC(=O)O)c2cc3nc(cc4[nH]c(cc5[nH]c(cc1n2)c(C)c5C(C)O)c(C)c4C(C)O)C(C)=C3CCC(=O)O` (centres undefined) [euspeclibcmpd1687], the “Srxn1-GFP intensity median modified Z-score” value is active: 8.82.

`CCCCCc1c2c(cc(O)c1C(=O)O)OC(=O)c1c(cc(OC)cc1C(=O)CCCC)O2` [euspeclibcmpd1731]: the “Srxn1-GFP intensity median modified Z-score” value is active: 4.46.

`Clc1ccc(CCC(Cn2ccnc2)Sc2c(Cl)cccc2Cl)cc1` (centres undefined) [euspeclibcmpd650]: the “Srxn1-GFP intensity median modified Z-score” value is active: 26.7.

With `NC(=O)CCC(N)C(=O)O` (centres undefined) [euspeclibcmpd1404], the “Srxn1-GFP intensity median modified Z-score” value is inactive: -0.533.

Turning to `CCCCCCCCCCCCCCCCCCOCC(O)CO` (centres undefined) [euspeclibcmpd1378], the “Srxn1-GFP intensity median modified Z-score” value was inactive: -0.274.

Turning to `C[N+]1(C)CCC(OC(=O)C(O)(c2ccccc2)C2CCCC2)C1` (centres undefined) [euspeclibcmpd863], the “Srxn1-GFP intensity median modified Z-score” value was inactive: -0.394.

On to `Oc1ccc2ccccc2c1` [euspeclibcmpd1176], for which the “Srxn1-GFP intensity median modified Z-score” value is inactive: 1.48.
